From the supplement of paper PMC9446081
Among all 39,000 compounds or so, about 220 (0.56%) showed activity. The list shows a part of the results.

System: Escherichia coli K-12 BW25113
Assay: relative growth (OD600 normalised to plate interquartile mean) (fraction); higher = less growth inhibition, active = 0.2 or less
Conditions: 50 µM; LB; incubation time: overnight (16-24 h)
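Also: static incubation at 37 °C against the wild-type strain, values averaged over two biological replicates.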

| Structure (SMILES) | relative growth |
| --- | --- |
| O=C(Nc1nccs1)[C@H]1[C@H](CO)[C@H]2Cn3c(cccc3=O)[C@H]2N1C(=O)C1CC1 | inactive: 1.01 |
| Cc1ccc(S(=O)(=O)N(C)C[C@H]2Oc3ccc(NC(=O)c4ccncc4)cc3C(=O)N([C@@H](C)CO)C[C@H]2C)cc1 | inactive: 0.992 |
| C[C@@H]1CN([C@@H](C)CO)C(=O)CCCn2nncc2CO[C@H]1CN(C)Cc1cccc2c1OCCCO2 | inactive: 0.999 |
| COc1ccc(C#Cc2ccc3c(c2)[C@]2(C(=O)N3)[C@H](c3ccccc3OCCO)N3[C@H](c4ccccc4)[C@H](c4ccccc4)OC(=O)[C@H]3[C@@H]2C(=O)NC[C@H](O)c2ccccc2)cc1 | inactive: 1.07 |
| C[C@@H]1CN([C@@H](C)CO)C(=O)Cc2cc(NC(=O)Nc3ccc(C(F)(F)F)cc3)ccc2O[C@@H]1CN(C)C(=O)Nc1cccc2ccccc12 | inactive: 0.998 |
| C[C@@H]1CN([C@H](C)CO)C(=O)c2cc(NC(=O)Nc3ccc(C(F)(F)F)cc3)ccc2O[C@H]1CN(C)Cc1ccc(Oc2ccccc2)cc1 | inactive: 1 |
| N#Cc1ccc(Oc2ccccn2)cc1 | inactive: 1.02 |
| C[C@@H]1CN([C@@H](C)CO)C(=O)c2cc(C3=CCCC3)cnc2O[C@@H]1CN(C)C(=O)c1ccc2c(c1)OCO2 | inactive: 1.04 |
| Cc1noc(C)c1S(=O)(=O)Nc1ccc2c(c1)CC(=O)N([C@H](C)CO)C[C@H](C)[C@H](CN(C)S(=O)(=O)c1ccccc1)O2 | inactive: 1.01 |
| NC(=S)Nc1nc2ccccc2[nH]c1=O | inactive: 0.968 |
| COc1cc(C2c3cc4c(cc3C(OC3OC5COC(c6cccs6)OC5C(O)C3O)C3COC(=O)C23)OCO4)cc(OC)c1O (stereo not given) | inactive: 1.16 |
| C[C@@H]1CN([C@H](C)CO)C(=O)c2cc(NC(=O)Nc3ccc(C(F)(F)F)cc3)ccc2O[C@@H](C)CCCCO[C@H]1CN(C)C(=O)C1CCCCC1 | inactive: 1.06 |
| CCCC#Cc1ccc2c(c1)O[C@H](CN(C)C(=O)c1cnccn1)[C@H](C)CN([C@H](C)CO)S2(=O)=O | inactive: 1.03 |
| Cc1noc(C)c1S(=O)(=O)Nc1ccc2c(c1)CC(=O)N([C@@H](C)CO)C[C@H](C)[C@@H](CN(C)C(=O)Nc1ccccc1)O2 | inactive: 0.982 |
| COc1ccc(S(=O)(=O)N(C)C[C@@H]2OCCCC[C@@H](C)Oc3ccc(NC(=O)c4ccccc4)cc3C(=O)N([C@H](C)CO)C[C@@H]2C)cc1 | inactive: 1.02 |
| CC(C)(C)N1CC=C[C@@]23O[C@@H]4/C=C\CCCOC(=O)[C@@H]4[C@H]2C(=O)N(CCO)[C@@H]3C1=O | inactive: 0.981 |
| Cn1cnc(S(=O)(=O)N[C@@H]2CC[C@@H](CC(=O)Nc3ccccc3)O[C@@H]2CO)c1 | inactive: 1 |
| Cc1ccc(NC(=O)CN)c(F)c1 | inactive: 0.997 |
| C[C@@H]1CCCCO[C@H](CN(C)C(=O)C2CCCCC2)[C@H](C)CN([C@@H](C)CO)C(=O)c2cc(NC(=O)Nc3ccc4c(c3)OCO4)ccc2O1 | inactive: 0.996 |
| C[C@H]1CN([C@@H](C)CO)S(=O)(=O)c2ccc(C#CC3(O)CCCC3)cc2O[C@H]1CN(C)C(=O)c1ccncc1 | inactive: 1.03 |

| Structure (SMILES) | relative growth |
| --- | --- |
| CCS(=O)(=O)Nc1ccc2c(c1)C(=O)N(C)C[C@@H](OC)[C@H](C)CN(Cc1nccs1)[C@H](C)CO2 | inactive: 1.01 |
| O=C(C[C@H]1C[C@H]2c3cc(NS(=O)(=O)c4ccc(F)cc4)ccc3O[C@H]2[C@H](CO)O1)NCc1ccc(Oc2ccccc2)cc1 | inactive: 1.01 |
| C[C@@H]1CN([C@@H](C)CO)C(=O)c2c(c3ccccc3n2C)-c2ccccc2CO[C@@H]1CN(C)C(=O)Nc1ccccc1C(F)(F)F | inactive: 0.981 |
| COCC(=O)N1C[C@H](C)[C@@H](OC)CN(C)C(=O)c2cc(NC(=O)Nc3cccc(F)c3)ccc2OC[C@H]1C | inactive: 0.979 |
| CCCNC(=O)N1[C@@H]2c3cccc(=O)n3C[C@H]1[C@H](CO)[C@H]2C(=O)NCC(F)(F)F | inactive: 0.965 |
| C[C@@H]1CCCCO[C@H](CN(C)Cc2ccccc2)[C@H](C)CN([C@H](C)CO)C(=O)c2cc(NS(=O)(=O)c3ccc(F)cc3)ccc2O1 | inactive: 1 |
| COc1cccc(S(=O)(=O)Nc2ccc3c(c2)[C@@H]2C[C@@H](CC(=O)N4CCCCC4)O[C@@H](CO)[C@@H]2O3)c1 | inactive: 0.993 |
| C[C@H](CO)N1C[C@H](C)[C@@H](CN(C)Cc2ccc3c(c2)OCO3)Oc2cc(C#CCN(C)C)ccc2S1(=O)=O | inactive: 0.887 |
| Cc1ccc(S(=O)(=O)N(C)C[C@H]2Oc3ccc(NC(=O)Nc4ccc(C(F)(F)F)cc4)cc3C(=O)N([C@H](C)CO)C[C@@H]2C)cc1 | inactive: 0.978 |
| O=C(C[C@H]1C[C@H]2c3cc(NC(=O)C4CCOCC4)ccc3O[C@H]2[C@@H](CO)O1)NCc1ccc(Cl)cc1 | inactive: 0.967 |
| C[C@@H]1CN([C@@H](C)CO)C(=O)c2cc(NC(=O)CCC(F)(F)F)ccc2O[C@@H]1CN(C)S(C)(=O)=O | inactive: 1 |
| C[C@H](CO)N1C[C@H](C)[C@H](CN(C)S(=O)(=O)c2ccc(Oc3ccccc3)nc2)OCc2cnnn2CCCC1=O | inactive: 0.972 |
| COc1ccc(S(=O)(=O)N(C)C[C@@H]2Oc3ccc(NS(=O)(=O)c4ccc(C)cc4)cc3C(=O)N([C@@H](C)CO)C[C@H]2C)cc1 | inactive: 1.03 |
| C[C@@H]1CN([C@H](C)CO)C(=O)c2cc(NC(=O)Nc3cccc4ccccc34)ccc2O[C@@H]1CN(C)C(=O)Nc1ccc(C(F)(F)F)cc1 | inactive: 1 |
| CC1=CCCC(C)=CCC(C)(C)C=CC1 [HUMULENE (alpha)] | inactive: 1.1 |
| C[C@@H]1CN([C@@H](C)CO)C(=O)Cc2cc(NC(=O)Nc3ccccc3)ccc2O[C@@H]1CN(C)S(=O)(=O)c1cn(C)cn1 | inactive: 0.997 |
| CC=Cc1ccc2n(c1=O)C[C@@H]1[C@@H](CO)[C@H](C(=O)NCCC)[C@H]2N1S(=O)(=O)c1cn(C)cn1 | inactive: 0.989 |
| CC(C)NC(=O)Nc1ccc2c(c1)C(=O)N([C@@H](C)CO)C[C@H](C)[C@H](CN(C)C(=O)Nc1ccccc1)OCCCC[C@@H](C)O2 | inactive: 0.976 |
| Fc1ccc(C2=NNC3=NCCN3C2)cc1F | inactive: 0.946 |
| C[C@H]1CCCCO[C@@H](CN(C)C(=O)Nc2ccc3c(c2)OCO3)[C@@H](C)CN([C@@H](C)CO)C(=O)c2cc(NC(=O)Cc3ccccc3)ccc2O1 | inactive: 0.995 |

| Structure (SMILES) | relative growth |
| --- | --- |
| C[C@H]1CN([C@@H](C)CO)C(=O)c2cc(NS(C)(=O)=O)ccc2O[C@@H]1CN(C)C(=O)Nc1ccc(F)cc1 | inactive: 0.993 |
| C[C@@H]1CCCCO[C@@H](CN(C)C(=O)Nc2cccc3ccccc23)[C@H](C)CN([C@H](C)CO)C(=O)c2cc(NC(=O)CCCN(C)C)ccc2O1 | inactive: 1.01 |
| C[C@@H]1CN([C@@H](C)CO)S(=O)(=O)c2ccc(C#CC3CC3)cc2O[C@H]1CN(C)C(=O)C1CCCCC1 | inactive: 0.92 |
| OC[C@@H]1CN(CCN2CCOCC2)C[C@H](n2cnc3c(NC4CCC4)ncnc32)O1 | inactive: 0.936 |
| C[C@@H]1CN([C@@H](C)CO)C(=O)c2cc(C#CC3(O)CCCC3)cnc2O[C@H]1CN(C)C(=O)CN(C)C | inactive: 1.01 |
| C[C@H](CO)N1C[C@H](C)[C@@H](CN(C)S(=O)(=O)c2cccs2)Oc2ccc(NC(=O)Cn3cnnn3)cc2C1=O | inactive: 0.99 |
| CC(C)NC(=O)N[C@@H]1CC[C@@H](CCN)O[C@H]1CO | inactive: 0.989 |
| C[C@@H]1CN([C@H](C)CO)C(=O)c2cc(NC(=O)Nc3cccc4ccccc34)ccc2O[C@@H](C)CCCCO[C@@H]1CN(C)S(=O)(=O)c1ccccc1 | inactive: 1.17 |
| CC(C)(CO)C(O)C(=O)NCCC(=O)[O-].[Na+] (stereo not given) [PANTOTHENIC ACID(d) Na salt] | inactive: 1.03 |
| CN1CCN(C(=O)C[C@@H]2CC[C@H]3[C@@H](COc4ccc(NC(=O)c5ccc(F)c(F)c5)cc4C(=O)N3C)O2)CC1 | inactive: 1 |
| COc1ccc(S(=O)(=O)Nc2cccc3c2O[C@H](CN(C)S(=O)(=O)c2ccccc2)[C@H](C)CN([C@@H](C)CO)C3=O)cc1 | inactive: 1.05 |
| CO[C@@H]1CN(C)C(=O)c2ccc(NS(C)(=O)=O)cc2OC[C@H](C)N(S(C)(=O)=O)C[C@H]1C | inactive: 0.991 |
| C[C@@H]1CN([C@H](C)CO)C(=O)c2cc(NC(=O)CCC(F)(F)F)ccc2O[C@@H](C)CCCCO[C@H]1CN(C)Cc1ccc(C(F)(F)F)cc1 | inactive: 1.02 |
| O=C(C[C@@H]1CC[C@H](NC(=O)c2cccnc2)[C@@H](CO)O1)NCCN1CCCCC1 | inactive: 0.971 |
| C[C@@H]1CN([C@H](C)CO)C(=O)c2cc(NC(=O)C3CC3)ccc2O[C@H]1CN(C)S(=O)(=O)c1ccccc1 | inactive: 1.01 |
| Cc1ccc(S(=O)(=O)Nc2ccc3c(c2)CC(=O)N([C@@H](C)CO)C[C@H](C)[C@H](CN(C)S(=O)(=O)c2cn(C)cn2)O3)cc1 | inactive: 0.998 |
| CCCC#Cc1ccc2c(c1)O[C@@H](CN(C)Cc1ccc3c(c1)OCO3)[C@H](C)CN([C@H](C)CO)S2(=O)=O | inactive: 1.05 |
| CN(C)S(=O)(=O)N1CCO[C@@H]2CN(c3ncc(F)cn3)C[C@@H]21 | inactive: 0.981 |
| CCCC(=O)Nc1ccc2c(c1)C(=O)N(C)C[C@H](OC)[C@@H](C)CN(Cc1ccc(-c3ccccn3)cc1)[C@@H](C)CO2 | inactive: 0.996 |
| CC(C)C#Cc1ccc2c(c1)O[C@H](CN(C)C(=O)Cc1ccccn1)[C@@H](C)CN([C@@H](C)CO)S2(=O)=O | inactive: 0.997 |
